# Data: the supplement of paper PMC3334620
# The full ranking holds about 33,000 sequences; the median of “E-score (-0.5 to 0.5)” is about -0.043, and the highest 2% start at about 0.37. This is one part of the list.
# Target: T1, Upc2 (UniProt Q12151)
# T1 sequence: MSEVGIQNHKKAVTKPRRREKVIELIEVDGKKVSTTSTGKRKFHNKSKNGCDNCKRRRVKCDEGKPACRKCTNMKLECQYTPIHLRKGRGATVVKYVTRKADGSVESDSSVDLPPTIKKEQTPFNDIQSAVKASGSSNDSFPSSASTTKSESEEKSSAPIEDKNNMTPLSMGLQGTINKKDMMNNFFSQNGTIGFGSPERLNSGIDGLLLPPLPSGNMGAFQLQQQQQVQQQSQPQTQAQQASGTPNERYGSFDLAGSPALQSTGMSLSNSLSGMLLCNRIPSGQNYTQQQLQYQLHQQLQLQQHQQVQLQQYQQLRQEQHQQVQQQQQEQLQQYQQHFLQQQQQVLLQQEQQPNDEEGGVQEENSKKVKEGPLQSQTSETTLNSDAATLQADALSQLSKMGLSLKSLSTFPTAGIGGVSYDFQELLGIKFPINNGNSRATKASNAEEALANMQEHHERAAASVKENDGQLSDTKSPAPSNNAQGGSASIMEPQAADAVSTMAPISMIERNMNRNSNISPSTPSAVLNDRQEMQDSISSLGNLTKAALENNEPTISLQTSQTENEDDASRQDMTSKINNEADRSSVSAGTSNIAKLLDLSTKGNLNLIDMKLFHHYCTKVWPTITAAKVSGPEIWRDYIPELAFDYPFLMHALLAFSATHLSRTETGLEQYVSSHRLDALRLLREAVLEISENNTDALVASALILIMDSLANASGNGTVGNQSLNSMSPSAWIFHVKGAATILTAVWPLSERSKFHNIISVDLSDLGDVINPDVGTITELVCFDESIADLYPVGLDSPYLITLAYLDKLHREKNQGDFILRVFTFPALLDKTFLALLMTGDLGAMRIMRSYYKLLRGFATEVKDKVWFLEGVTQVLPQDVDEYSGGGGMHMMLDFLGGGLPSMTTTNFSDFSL
# Experiment: PBM E-score (8-mer binding enrichment) (E-score (-0.5 to 0.5)); higher = stronger / more preferred TF binding; most listed sequences are background and not binding sites
# Settings: protein concentration: 200 nM; construct: GST-full length
# In short: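 Yeast transcription factors carrying a GST tag, as full-length proteins or DNA-binding domains, were produced by PURExpress in vitro transcription/translation. About 100-200 nM protein was applied to universal all-10-mer Agilent arrays, double-stranded by primer extension on fresh or once-stripped slides. Bound protein was detected with fluorescent anti-GST, and scans were normalised with masliner. The Universal PBM Analysis Suite gave each ungapped eight-base word, pooled with its reverse complement, an E-score, a modified Wilcoxon-Mann-Whitney statistic.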
row,Sequence,PBM E-score
1,CCCCACTC,0.0794
2,AGCTGGCG,-0.0685
3,ACCTGCTC,0.0469
4,CATGTAAC,0.017
5,TAGAGTGA,-0.255
6,CGCACGTC,-0.106
7,GCAATTCA,-0.0134
8,GAGCCGTA,0.308
9,CACCAATA,-0.122
10,CGCTATTA,0.106
11,AGGTATCG,0.0877
12,CTGGGGTC,-0.244
13,CAAAGGAA,0.137
14,AAGTCTAT,-0.209
15,CATTTGGG,0.0514
16,CTTAGGCA,-0.361
17,ACCGTCAC,-0.236
18,AAGAGGTA,0.0352
19,GACATCTC,0.0241
20,CGTTGTAG,0.00423
21,AACGCTTA,0.071
22,TATGCGAA,0.346
23,ATGGATCC,-0.148
24,GATTCGAC,-0.109
25,ATGGGGTA,-0.0229

row,Sequence,PBM E-score
1,TCGGAAGA,-0.00408
2,GTACCAAA,0.161
3,GGGTTGTA,0.00302
4,CGAGGACG,0.197
5,AACCTCAA,-0.138
6,CATATGCG,0.245
7,GGCTCTTA,0.133
8,ATTTACCG,0.165
9,GTCCGGTA,0.0427
10,CGTATTTC,0.314
11,GGTAGAGA,-0.0945
12,AAATCGCG,0.0964
13,CAATACCA,-0.0526
14,TCTACTAA,0.0296
15,TGCGCGAA,0.186
16,TCCATCGA,-0.0738
17,CAACTGGC,-0.184
18,CCTCCACC,-0.195
19,GAGATCGA,-0.127
20,GCTGACCC,-0.182
21,ACGATCAA,0.228
22,ACGGAGCA,-0.00346
23,ACTTTACT,-0.151
24,AGTTATTC,0.162
25,ATACAGTG,0.118

row,Sequence,PBM E-score
1,ACTTGGTA,0.091
2,CTGGGGAC,-0.239
3,GGGGTACC,-0.301
4,AGTGGTTA,0.127
5,AGGGTAGG,-0.331
6,CCATACGC,0.322
7,AAGCCTTA,0.00135
8,GTCGTGCA,0.038
9,AAAGACTG,0.103
10,GCGGCGAA,-0.0606
11,TAGTAGAA,0.105
12,ATTGTAGA,0.0288
13,GGGCTTAA,-0.131
14,CCGCTGAA,-0.042
15,CCTGCTCA,-0.176
16,ACTACGAG,0.284
17,GCCTTGAC,-0.234
18,AAAAAGGT,-0.0451
19,AAGTAACA,-0.157
20,CTAGTAGC,0.0825
21,CCAGCGGC,-0.197
22,GCCCAGAA,-0.131
23,CCTTAGCG,0.132
24,AAGGTCTA,0.00968
25,AATCGCAT,0.0361

row,Sequence,PBM E-score
1,ATTGAAGC,-0.0421
2,TATTTGAA,-0.04
3,CCAACACA,0.0458
4,ACTCATAC,0.285
5,CTTAGACA,-0.0523
6,ATAACTAT,0.109
7,GGCATGAC,-0.0533
8,TACTAATA,0.0789
9,GCGCGCAC,-0.0883
10,CGGTGACG,-0.032
11,CTCATCTC,-0.0248
12,AACGCGAA,0.23
13,GTCGAGTA,0.0357
14,GTTAGACA,-0.122
15,ACGCCGCC,-0.0501
16,AGTGAGTA,0.0846
17,CACTTTTA,0.027
18,AATGCGTG,-0.165
19,AATCCGGA,-0.204
20,CGCCTCAA,-0.0172
21,CGTGTGTA,-0.00606
22,CACTGAGG,-0.105
23,CCAGAATC,-0.0372
24,GCTCTAAC,-0.101
25,ATTCTGAC,-0.0715

row,Sequence,PBM E-score
1,ATGTGAAG,0.0151
2,TGTAGTAA,0.0713
3,AATTGAAA,0.0218
4,CATCATTC,-0.0039
5,GATAATCA,-0.215
6,ATGAGTGA,-0.101
7,TCAACCCA,0.00722
8,AGGTAAGC,0.013
9,CAGAAGTA,-0.191
10,CTCGGCTC,-0.0812
11,CATGGGGC,-0.34
12,GCAGCCAA,-0.15
13,ACTGTTAT,-0.0931
14,AAGTAACT,-0.161
15,ATCTGCAT,-0.0901
16,CCAGCCGG,-0.142
17,TCAGTGGA,-0.294
18,ACAAACGA,0.466
19,AGTGATAG,-0.067
20,TGCACGAA,0.145
21,TCAAAAAA,-0.122
22,ATCGCGAA,0.205
23,AAGGCGAT,0.0551
24,CTGGGCGA,-0.158
25,CGAGTTGC,0.129

row,Sequence,PBM E-score
1,ATCGACCG,0.00067
2,GCCTCACA,0.0293
3,CGAAATCA,0.273
4,CGAGAAGA,0.0586
5,AACACTTA,0.0395
6,CATGGATA,-0.0903
7,GCGAAAAC,0.11
8,CGTTAACA,0.274
9,CGGGAGTC,-0.218
10,ATAACAGG,-0.136
11,AATAACGT,0.133
12,GAGCCATA,0.0879
13,AAACCATA,0.104
14,AAGAGCAC,-0.0208
15,CCACGCGA,-0.0516
16,AAGATGAG,-0.136
17,GAGCTAGC,-0.00939
18,CTCGCTAC,0.235
19,GATAGTGA,0.139
20,CCAAGGGG,-0.0169
21,ACAGTCAG,0.0967
22,ACAATTAA,0.109
23,CACCAACC,-0.0946
24,CACACTGG,-0.2
25,AGAAGCGA,0.158

row,Sequence,PBM E-score
1,CAATCAGA,-0.0191
2,CGTGTCGC,0.217
3,ACGCACTG,0.0653
4,AAAAGACA,0.0436
5,AATCATCA,-0.0622
6,CATGGAAA,-0.0449
7,ACAGCAGG,-0.186
8,GAGTGGGA,0.0635
9,CCACGCGG,-0.171
10,CCCATTAA,-0.105
11,GCTATTTA,-0.0825
12,GAAGCATA,0.00504
13,ATGACGGA,-0.102
14,CTGTTTAC,0.142
15,ACTCTGCC,0.0158
16,ACCGAGAA,0.211
17,CTCCTAAC,0.0295
18,GTTATCCA,-0.154
19,CCATAGAC,-0.166
20,AATTCATA,-0.129
21,CCAGTTAA,0.173
22,CCAAACAG,-0.17
